Residue numbers refer to the chain shown, from its start.
How the values were obtained:
Experiment in all cases: cell-based or functional assay
human TrkB receptor [1] = biological target: T1, human TrkB receptor (human, UniProt Q16620 32-822)
rat TrkB receptor = rat TrkB receptor (rat, UniProt Q63604 32-821)
human VEGF-A = biological target: T2, human VEGF-A (human, UniProt P15692-4 27-191)
T2 sequence (looked up): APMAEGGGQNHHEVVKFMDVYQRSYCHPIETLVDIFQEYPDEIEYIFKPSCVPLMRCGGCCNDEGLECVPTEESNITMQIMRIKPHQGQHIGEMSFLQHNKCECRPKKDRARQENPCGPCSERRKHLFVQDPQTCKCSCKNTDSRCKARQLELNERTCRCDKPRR

human TrkB receptor [2] = biological target: T1, human TrkB receptor; remark: listed apart in the source
T1 sequence (Q16620 32-822): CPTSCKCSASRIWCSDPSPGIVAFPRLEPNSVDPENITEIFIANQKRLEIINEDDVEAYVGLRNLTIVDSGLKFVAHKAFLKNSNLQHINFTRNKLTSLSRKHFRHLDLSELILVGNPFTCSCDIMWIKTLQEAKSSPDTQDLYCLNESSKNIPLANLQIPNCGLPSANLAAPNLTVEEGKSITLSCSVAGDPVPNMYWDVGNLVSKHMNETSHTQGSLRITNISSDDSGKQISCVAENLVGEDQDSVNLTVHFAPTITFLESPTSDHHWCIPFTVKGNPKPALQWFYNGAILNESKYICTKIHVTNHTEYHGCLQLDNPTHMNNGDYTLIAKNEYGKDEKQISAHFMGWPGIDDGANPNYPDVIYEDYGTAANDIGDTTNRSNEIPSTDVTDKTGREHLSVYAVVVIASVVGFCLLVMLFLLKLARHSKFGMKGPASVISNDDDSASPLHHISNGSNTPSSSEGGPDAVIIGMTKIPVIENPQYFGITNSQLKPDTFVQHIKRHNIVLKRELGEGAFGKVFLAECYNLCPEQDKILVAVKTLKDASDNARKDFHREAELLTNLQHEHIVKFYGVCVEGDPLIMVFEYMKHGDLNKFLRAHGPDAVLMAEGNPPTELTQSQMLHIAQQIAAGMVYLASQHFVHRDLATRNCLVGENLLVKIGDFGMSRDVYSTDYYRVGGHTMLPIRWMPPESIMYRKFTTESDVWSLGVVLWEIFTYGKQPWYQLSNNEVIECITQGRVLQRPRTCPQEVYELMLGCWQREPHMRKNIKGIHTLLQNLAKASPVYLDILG

rat TrkB receptor, sequence (Q63604 32-821): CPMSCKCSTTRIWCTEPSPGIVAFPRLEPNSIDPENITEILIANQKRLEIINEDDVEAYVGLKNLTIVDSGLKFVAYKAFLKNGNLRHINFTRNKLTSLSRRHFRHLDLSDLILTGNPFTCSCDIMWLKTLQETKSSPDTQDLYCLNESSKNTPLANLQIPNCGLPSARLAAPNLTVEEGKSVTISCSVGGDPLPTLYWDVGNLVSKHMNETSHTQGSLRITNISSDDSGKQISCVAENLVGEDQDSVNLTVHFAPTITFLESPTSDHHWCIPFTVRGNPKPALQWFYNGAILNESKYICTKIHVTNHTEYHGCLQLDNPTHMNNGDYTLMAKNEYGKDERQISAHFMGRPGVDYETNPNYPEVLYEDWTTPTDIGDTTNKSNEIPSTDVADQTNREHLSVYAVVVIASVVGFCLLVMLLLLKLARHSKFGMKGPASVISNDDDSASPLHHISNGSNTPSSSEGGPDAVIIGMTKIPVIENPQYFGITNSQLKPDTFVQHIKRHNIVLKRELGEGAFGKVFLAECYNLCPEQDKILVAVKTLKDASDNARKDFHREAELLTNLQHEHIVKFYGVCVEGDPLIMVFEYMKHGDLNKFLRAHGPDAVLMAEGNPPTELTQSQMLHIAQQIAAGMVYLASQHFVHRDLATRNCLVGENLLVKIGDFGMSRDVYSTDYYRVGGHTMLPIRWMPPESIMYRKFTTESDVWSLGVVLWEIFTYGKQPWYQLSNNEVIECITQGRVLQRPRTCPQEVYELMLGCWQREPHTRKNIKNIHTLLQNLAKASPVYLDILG

B1: TPP-19986 (bispecific antibody, human IgG1, kappa)
heavy: EVQLVESGGGLVQPGGSLRLSCAASGYDFTHYGMNWVRQAPGKGLEWVGWINTYTGEPTYAADFKRRFTFSLDTSKSTAYLQMNSLRAEDTAVYYCAKYPYYYGTSHWYFDVWGQGTLVTVSSASTKGPSVFPLAPSSKSTSGGTAALGCLVKDYFPEPVTVSWNSGALTSGVHTFPAVLQSSGLYSLSSVVTVPSSSLGTQTYICNVNHKPSNTKVDKRV[in this place human IgG1 Fc with changes]GGGGSGGGGSQVQLVQSGAEVKKPGASVKVSCKASGYTFTNYDIIWVRQAPGQGLEWMGYINPYNDGTKYNEKFKGRVTMTRDTSTSTVYMELSSLRSEDTAVYYCARLLKYRRFRYYAIDYWGQGTTVTVSSGGSEGKSSGSGSESKSTGGSDIQMTQSPSSLSASVGDRVTITCRTSENVYSNLAWYQQKPGKAPKLLIYAASNLQSGVPSRFSGSGSGTDYTFTISSLQPEDIATYYCQHFWGSPFTFGQGTKLEIK
light: DIQLTQSPSSLSASVGDRVTITCSASQDISNYLNWYQQKPGKAPKVLIYFTSSLHSGVPSRFSGSGSGTDFTLTISSLQPEDFATYYCQQYSTVPWTFGQGTKVEIKRTVAAPSVFIFPPSDEQLKSGTASVVCLLNNFYPREAKVQWKVDNALQSGNSQESVTEQDSKDSTYSLSSTLTLSKADYEKHKVYACEVTHQGLSSPVTKSFNRGEC
For B1, the “EC50 (pERK)” value (human TrkB receptor [1]) was 0.406 nM and the “EC50 (pTrkB)” value (human TrkB receptor [1]) was 2 nM.

B2: TPP-19987 (bispecific antibody, human IgG1, kappa)
heavy: EVQLVESGGGLVQPGGSLRLSCAASGYDFTHYGMNWVRQAPGKGLEWVGWINTYTGEPTYAADFKRRFTFSLDTSKSTAYLQMNSLRAEDTAVYYCAKYPYYYGTSHWYFDVWGQGTLVTVSSASTKGPSVFPLAPSSKSTSGGTAALGCLVKDYFPEPVTVSWNSGALTSGVHTFPAVLQSSGLYSLSSVVTVPSSSLGTQTYICNVNHKPSNTKVDKRV[in this place human IgG1 Fc with changes]GGGGSGGGGSGGGGSGGGGSQVQLVQSGAEVKKPGASVKVSCKASGYTFTNYDIIWVRQAPGQGLEWMGYINPYNDGTKYNEKFKGRVTMTRDTSTSTVYMELSSLRSEDTAVYYCARLLKYRRFRYYAIDYWGQGTTVTVSSGGSEGKSSGSGSESKSTGGSDIQMTQSPSSLSASVGDRVTITCRTSENVYSNLAWYQQKPGKAPKLLIYAASNLQSGVPSRFSGSGSGTDYTFTISSLQPEDIATYYCQHFWGSPFTFGQGTKLEIK
light: B1 light
With B2 the “EC50 (pERK)” value (human TrkB receptor [1]) was 0.381 nM and the “EC50 (pTrkB)” value (human TrkB receptor [1]) was 2.16 nM.

B3: TPP-22216 (bispecific antibody, human IgG1, kappa)
heavy: QVQLVQSGGGLVQPGGSLRLSCAASGYDFTHYGMNWVRQAPGKGLEWVGWINTYTGEPTYAADFKRRFTFSLDTSKSTAYLQMNSLRAEDTAVYYCAKYPYYYGTSHWYFDVWGQGTLVTVSSASTKGPSVFPLAPSSKSTSGGTAALGCLVKDYFPEPVTVSWNSGALTSGVHTFPAVLQSSGLYSLSSVVTVPSSSLGTQTYICNVNHKPSNTKVDKRV[in this place human IgG1 Fc with changes]GGGGSGGGGSDIQMTQSPSSLSASVGDRVTITCRTSENVYSNLAWYQQKPGKAPKLLIYAASNLQSGVPSRFSGSGSGTDYTFTISSLQPEDIATYYCQHFWGSPFTFGCGTKLEIKGGSEGKSSGSGSESKSTGGSQVQLVQSGAEVKKPGASVKVSCKASGYTFTNYDIIWVRQAPGQCLEWMGYINPYNDGTKYNEKFKGRVTMTRDTSTSTVYMELSSLRSEDTAVYYCARLLKYRRFRYYAIDYWGQGTTVTVSS
light: B1 light with D70G
In the case of B3, the “TrkB-phosphorylation efficacy (AlphaLISA counts)” value (rat TrkB receptor) is reported as 25800 AlphaLISA counts, the “TrkB-phosphorylation efficacy relative to parental clone without CC bridge (%)” value (rat TrkB receptor) is reported as 122% and the “TrkB-phosphorylation potency (EC50, nM)” value (rat TrkB receptor) is reported as 3.31 nM. The “concentration for full inhibition of VEGF-induced HRMEC proliferation” value (human VEGF-A) was 0.25 nM, the “TrkB-phosphorylation efficacy (AlphaLISA counts)” value (human TrkB receptor [2]) was 8410 AlphaLISA counts and the “TrkB-phosphorylation efficacy relative to parental clone without CC bridge (%)” value (human TrkB receptor [2]) was 149%. The “TrkB-phosphorylation potency (EC50, nM)” value (human TrkB receptor [2]) was 4.33 nM.

From patent publication US20250051460A1 (Boehringer Ingelheim, published 2025)
